# In the supplement of paper PMC3334620:
# In all, about 33,000 sequences were measured (“E-score (-0.5 to 0.5)”: median about -0.035, highest 2% from about 0.35 on). The list shows a part of the results.
# Biological target: T1, Pdr3 (UniProt P33200)
# T1 sequence: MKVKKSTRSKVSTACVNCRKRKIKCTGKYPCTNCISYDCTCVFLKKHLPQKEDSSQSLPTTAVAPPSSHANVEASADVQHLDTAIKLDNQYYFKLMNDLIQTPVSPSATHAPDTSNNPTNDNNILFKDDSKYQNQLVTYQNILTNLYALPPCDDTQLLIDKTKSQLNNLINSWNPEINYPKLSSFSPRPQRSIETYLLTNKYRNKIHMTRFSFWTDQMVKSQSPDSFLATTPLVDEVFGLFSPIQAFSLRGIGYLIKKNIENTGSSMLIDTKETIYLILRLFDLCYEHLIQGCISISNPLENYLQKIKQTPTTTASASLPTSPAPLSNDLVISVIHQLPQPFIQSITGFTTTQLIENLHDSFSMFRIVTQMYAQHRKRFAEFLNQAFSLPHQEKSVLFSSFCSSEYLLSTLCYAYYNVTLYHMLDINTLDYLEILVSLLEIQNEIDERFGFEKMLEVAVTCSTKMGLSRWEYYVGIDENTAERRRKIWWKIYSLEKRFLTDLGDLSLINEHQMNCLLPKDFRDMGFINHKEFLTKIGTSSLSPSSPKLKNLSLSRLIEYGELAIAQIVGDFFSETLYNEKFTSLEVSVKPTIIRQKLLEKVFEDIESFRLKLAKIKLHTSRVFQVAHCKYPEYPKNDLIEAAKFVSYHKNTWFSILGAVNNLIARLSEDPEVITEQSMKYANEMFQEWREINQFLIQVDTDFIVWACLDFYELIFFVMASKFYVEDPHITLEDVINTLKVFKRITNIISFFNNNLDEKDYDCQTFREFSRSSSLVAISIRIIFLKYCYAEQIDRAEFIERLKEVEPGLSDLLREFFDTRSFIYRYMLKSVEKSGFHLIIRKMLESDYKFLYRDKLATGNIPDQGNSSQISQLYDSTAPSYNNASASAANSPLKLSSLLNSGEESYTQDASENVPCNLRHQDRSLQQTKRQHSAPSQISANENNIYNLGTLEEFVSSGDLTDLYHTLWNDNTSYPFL
# Test: PBM E-score (8-mer binding enrichment) (E-score (-0.5 to 0.5)); higher = stronger / more preferred TF binding; most listed sequences are background and not binding sites
# Details: protein concentration: 200 nM; construct: GST-full length
# Method in brief: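 Using PURExpress in vitro transcription/translation, GST-tagged yeast transcription factors were made in full-length or DNA-binding-domain form. These were applied at about 100-200 nM to double-stranded universal all-10-mer Agilent arrays, and bound protein was detected with fluorescent anti-GST. Scans were normalised with masliner before the Universal PBM Analysis Suite assigned E-scores to ungapped eight-base words pooled with their reverse complements.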
row,Sequence,PBM E-score
1,AACACGCG,-0.119
2,AGCGTAAA,-0.0667
3,ATGCTAAA,-0.162
4,CAAAAATC,-0.175
5,ATTTGCCA,-0.287
6,AGATAACT,-0.122
7,GCGGATCA,0.296
8,TCTCACCA,0.117
9,CATATGCC,-0.00179
10,AAAAGCGT,-0.0607
11,AAGCTATC,0.109
12,ATGTACGA,0.0462
13,CAGGAACG,-0.0257
14,GTAATTCA,-0.0724
15,GCCATGAC,-0.185
16,CGACAGGC,-0.162
17,ACGGGTAG,0.0793
18,ACCTCCAG,-0.172
19,GTAACCGA,0.0824
20,ATGAAGTG,-0.0256
21,CTGAGAGA,-0.189
22,ATCAGTGC,-0.173
23,ACCAATCC,0.182
24,AAACTGGT,-0.00599
25,CCTTGAAC,-0.137

row,Sequence,PBM E-score
1,GACACTGA,-0.00525
2,GAGTGTAC,-0.0902
3,GTAGCACA,-0.147
4,CTCAAATA,-0.118
5,GGTAAGAC,-0.0755
6,ACAAGGCC,-0.111
7,AGCTGGAT,-0.0726
8,CTTATACA,-0.217
9,CTGATTTA,-0.0745
10,AACCGGAT,0.316
11,ATGTTCCG,0.48
12,GATCATCC,0.221
13,ACAATTAG,-0.156
14,CCCGCACC,0.225
15,AGAGACAT,-0.0527
16,AGTGACGA,-0.0467
17,CACGTCCG,0.229
18,AGAGTTTA,0.0734
19,GGGGTTAA,0.0549
20,CGGACGGA,0.367
21,AAAAGGTG,-0.119
22,ATACTAGG,0.0531
23,AAGGGCCC,0.00697
24,ATCACGCG,0.119
25,AGCGTACA,-0.276

row,Sequence,PBM E-score
1,ATCATGGG,-0.0668
2,CCCCCGAG,-0.0658
3,AGGCCCGG,0.115
4,AGAAGTTA,-0.145
5,CACAAGCA,-0.171
6,GGGCAACA,0.031
7,GATGATAA,0.0161
8,ATTCAAGG,-0.271
9,AACTGAGA,-0.222
10,CCCAATCG,0.0319
11,ACCAGCGT,-0.167
12,ACGGAAAT,0.452
13,GAACGCAA,0.133
14,CTTGCGAA,0.131
15,ACTGCGTC,-0.167
16,ATCGTCGG,0.0957
17,ACTCGTTC,-0.119
18,TAGCACCA,-0.203
19,GCGAGTCA,-0.141
20,CGCAACTC,0.117
21,AGGTTAGG,-0.128
22,AACAAAAA,-0.0088
23,ACCCAGGT,-0.167
24,ACTCTTTA,-0.279
25,AATGCGTA,-0.151

row,Sequence,PBM E-score
1,GTGCGTGA,0.134
2,CTCGCGCC,0.0655
3,AGCGACTA,-0.241
4,CAAGGCTA,-0.0899
5,ACATCCTA,-0.218
6,CTTGCATC,-0.0942
7,ATGCCGCC,0.213
8,AAAAGACC,-0.287
9,CATGCAAC,0.0685
10,CCAGCGAC,-0.106
11,CTAATAAC,-0.071
12,AGTATAGG,0.0506
13,AGCAATGC,0.0462
14,AGATGGGA,-0.2
15,AGTCGATA,-0.0789
16,AGACAGAT,0.0686
17,ATAAGGCC,-0.0419
18,AACTCTTG,-0.194
19,AGTCTGGG,-0.297
20,AACACGGC,0.154
21,GTGCGCCA,0.0168
22,GTAAAAAA,0.00467
23,TGGCTAAA,-0.145
24,ATTCCTAA,-0.0375
25,CTCTGCAA,-0.0431

row,Sequence,PBM E-score
1,TGTCATAA,-0.142
2,GCGACTCC,-0.0745
3,GATCAAAA,-0.143
4,AAACGAAG,-0.223
5,CGACGTTC,-0.144
6,ATCTTAGA,0.045
7,ATTATGTA,0.0176
8,GTCGAATA,0.0155
9,CATAATGG,-0.103
10,AGACGGAG,0.216
11,ATACGCTA,-0.0771
12,GATATGAA,0.00428
13,CACAGCGA,0.133
14,CCGTTACC,0.228
15,CGTCTCTC,-0.0562
16,ACCGGTTG,0.208
17,ACTCTTCA,-0.258
18,CACTAATG,-0.0468
19,ACCAGTCT,-0.248
20,GTGACGCA,-0.114
21,AAGTATAC,-0.0917
22,ACGTCTGG,-0.166
23,ACTCCCCC,-0.0859
24,ACTTGAAC,-0.0736
25,AGGCAGTA,-0.251

row,Sequence,PBM E-score
1,TAACGAAA,0.0473
2,GAACATAC,0.0175
3,ACAAAAAC,-0.0569
4,GGCAACAC,0.0901
5,TCCGTACA,0.299
6,GTATCTAA,0.0522
7,CGCAGATA,-0.0667
8,ATCTCGAC,0.0627
9,GAATGGCA,0.0147
10,CAGGAGGA,-0.292
11,GACTACAA,-0.207
12,ACGAGCGA,-0.185
13,GCGCACAA,0.0642
14,AAGAATAT,-0.103
15,CTAGTTGC,-0.12
16,ACAGTGCG,0.0464
17,GAGCGATA,-0.128
18,ACTCCTCG,0.137
19,ATAATCGG,0.287
20,ATACCATC,0.145
21,CCTTGTTA,-0.132
22,ATCTGATG,-0.131
23,GCGGAAAC,0.415
24,AGTCGTTA,-0.244
25,ACGGTGTA,-0.122

row,Sequence,PBM E-score
1,CGTCCCCC,-0.188
2,CCGGCCCC,0.189
3,GTTATACA,-0.0537
4,ACCTTGAG,-0.0954
5,GGGTAAAC,0.0209
6,GAACAGTA,0.00011
7,ACCAGGGT,-0.235
8,CAGAATGG,0.0132
9,AAATGTGT,-0.0435
10,AGACGTCT,-0.265
11,AGCGAATA,-0.0841
12,CTGATGTA,-0.0245
13,TCAATGCA,-0.194
14,AACTGTAC,-0.229
15,GTGAATCA,-0.0381
16,ACGCAGGG,-0.0388
17,AAGCGGGG,-0.0421
18,CGTTTAAG,-0.157
19,AGCTCAGC,-0.143
20,AACCATCG,0.0696
21,AAATTTAC,-0.0418
22,GAAAAACC,0.122
